Paper PMC4336329 (PLoS ONE, 2015)
The whole screen tested about 310,000 compounds, of which about 2,200 (0.71%) showed an effect of 50% or more. Effects have a minus sign here. Some of the results follow.

Molecular target: human ether-à-go-go-related gene (hERG) potassium channel (human, UniProt Q12809)
Test: primary screen, population patch clamp on CHO cells stably expressing hERG

Chain of human ether-à-go-go-related gene (hERG) potassium channel (Q12809 whole entry, looked up): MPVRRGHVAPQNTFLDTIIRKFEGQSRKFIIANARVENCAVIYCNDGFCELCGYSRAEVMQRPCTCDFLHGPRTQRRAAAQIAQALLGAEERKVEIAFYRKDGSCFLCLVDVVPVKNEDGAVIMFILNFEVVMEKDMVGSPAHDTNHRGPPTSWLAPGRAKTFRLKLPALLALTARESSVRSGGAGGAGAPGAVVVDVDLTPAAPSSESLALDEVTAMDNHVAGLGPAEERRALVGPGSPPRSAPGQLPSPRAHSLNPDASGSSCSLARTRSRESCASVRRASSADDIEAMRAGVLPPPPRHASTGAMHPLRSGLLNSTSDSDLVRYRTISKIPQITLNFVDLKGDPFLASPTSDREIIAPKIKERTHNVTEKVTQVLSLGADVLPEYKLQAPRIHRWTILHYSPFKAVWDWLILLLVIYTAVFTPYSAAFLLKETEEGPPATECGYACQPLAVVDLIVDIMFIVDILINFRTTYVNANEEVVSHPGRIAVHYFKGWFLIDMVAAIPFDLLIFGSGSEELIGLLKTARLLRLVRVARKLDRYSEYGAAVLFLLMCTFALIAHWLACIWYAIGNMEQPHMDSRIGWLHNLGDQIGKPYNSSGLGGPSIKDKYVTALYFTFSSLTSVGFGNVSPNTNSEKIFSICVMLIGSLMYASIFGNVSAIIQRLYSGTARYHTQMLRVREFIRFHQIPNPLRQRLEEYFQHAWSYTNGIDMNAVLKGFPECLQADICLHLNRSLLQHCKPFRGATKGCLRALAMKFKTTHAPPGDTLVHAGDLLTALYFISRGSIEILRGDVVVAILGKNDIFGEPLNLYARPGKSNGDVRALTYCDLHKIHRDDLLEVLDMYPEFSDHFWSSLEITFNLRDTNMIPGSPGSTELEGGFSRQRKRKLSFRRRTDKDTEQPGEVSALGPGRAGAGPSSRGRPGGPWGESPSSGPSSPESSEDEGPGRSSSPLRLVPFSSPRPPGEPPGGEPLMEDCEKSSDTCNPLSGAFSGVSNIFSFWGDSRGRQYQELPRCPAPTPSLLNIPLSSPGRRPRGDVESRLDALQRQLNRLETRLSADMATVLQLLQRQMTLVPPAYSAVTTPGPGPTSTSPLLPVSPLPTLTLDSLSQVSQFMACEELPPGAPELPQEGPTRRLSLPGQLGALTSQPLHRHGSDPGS

Row | SMILES | hERG current change (%, negative = inhibition) at 1uM [%]
1 | CS(=O)(=O)c1cccc(C(=O)OCC(=O)NCc2cccs2)c1 | 8.1
2 | Cc1ccc(S(=O)(=O)N(C)C)cc1NC(=O)Cn1c(CN2CCOCC2)nc2ccccc2c1=O | 12.6
3 | O=c1[nH]c2cc3c(cc2cc1CN(Cc1nnnn1CC1CCCO1)C1CCCC1)OCO3 (stereo not shown) | 4.94
4 | Cc1cc(-c2ccc(Cl)cc2)n2nc(N)nc2n1 | 7.56
5 | COc1ccc(N/C=C(\C#N)S(=O)(=O)c2ccc(OC)cc2)cc1 | 13.8
6 | Cc1ccc(C(=O)NCC(=O)OCC(=O)NC2CCS(=O)(=O)C2)cc1C (stereo not shown) | 3.28
7 | Cc1c(-c2ccccc2)[n+](=O)c2c(n1[O-])CCCCC2 | 11.2
8 | CCn1cc(C(=O)OCC(=O)c2cc(C)n(-c3ccccc3F)c2C)c(=O)c2ccc(C)nc21 | 1.48
9 | Cc1ccc(C(=O)NCCc2nnc3ccc(SCC(=O)N4CCCC4)nn23)cc1 | 9.81
10 | O=C(NCc1ccon1)C1CCC(=O)N(CCc2ccc(Cl)cc2)C1 (stereo not shown) | 6.81
11 | CC(=O)N1CCc2cc(S(=O)(=O)N3CCc4ccccc4C3)ccc21 | 10.5
12 | Cc1ccc(OCC(=O)NNC(=O)c2ccccc2OCc2c(C)noc2C)cc1 | 4.63
13 | CC(C)Oc1ccc(C(CC(=O)O)n2cnnn2)cc1 (stereo not shown) | 20.6
14 | O=C(CCCCC(=O)N1CCOCCOCCOCC1)OCc1ccccc1 | 17.7
15 | CCOC(=O)c1c(O)cc(C)[nH]c1=O | 13.9
16 | COc1cccc(-c2noc(Cn3nc(C(=O)O)c4ccccc4c3=O)n2)c1 | 10.5
17 | CC1=NN(C(=O)COc2cc(C)ccc2C(C)C)C(O)(c2ccccc2)C1 (stereo not shown) | 15
18 | CCOC(=O)C(Cc1c[nH]c2ccccc12)NC(=O)CNC(C)=O (stereo not shown) | -3.07
19 | CCOc1ccc(NS(=O)(=O)c2ccc(C(=O)N3CCN(C(C)=O)CC3)cc2)cc1 | 6.49
20 | O=C1C2CCCCC2C(=O)N1c1ccc(S(=O)(=O)Nc2ncccn2)cc1 (stereo not shown) | 2.1

Row | SMILES | hERG current change (%, negative = inhibition) at 1uM [%]
21 | C=CCS/C(=N\n1cnc2ccccc2c1=O)N1CCCCC1 | -16.2
22 | CN(c1ccccc1C(N)=O)S(=O)(=O)c1ccccc1 | 11.2
23 | Cl.O=C(Cc1ccccc1)NCCN1CCCC1 | 9.45
24 | Cc1ccccc1C(=O)OC(C)CN1CCN(C)CC1.Cl (stereo not shown) | 0.964
25 | Cc1cc(=O)n2nc(N3CCCC(C(=O)NCc4ccccc4C)C3)sc2n1 (stereo not shown) | 7.13
26 | C=CCNC(=O)NC(=O)COC(=O)/C=C/c1cccc([N+](=O)[O-])c1 | 7.33
27 | C=CCn1c2ccccc2c2nnc(SCc3ccc4nonc4c3)nc21 | 1.51
28 | CCc1cccc(C)c1NC(=O)Cn1c(NCCO)nc2ccccc21 | -4.42
29 | CCCCNC1C(CC)C(CCC)C(C#N)(C#N)C1(C#N)C#N (stereo not shown) | 0.734
30 | O=C(O)CCN=Cc1c(O)c2ccccc2oc1=O | 5.86
31 | Cc1ccc(NC(=O)N/C=C/c2ccco2)cc1C | -1.07
32 | C/C(=C/CCC(C)[C@H]1CC[C@@]2(C)C3=C(CC[C@]12C)[C@@]1(C)CCC(=O)C(C)(C)[C@@H]1CC3)C(=O)O (stereo partly shown) | 19.3
33 | COc1cc(Cl)cc(C(=O)O)c1OCC(=O)O | 4.19
34 | Cc1ccc(-n2c(SCc3cc(=O)n4ccsc4n3)nnc2-c2cccnc2)c(C)c1 | -11.7
35 | Cc1ccc(C(C)C)c(OCCNC(=O)c2ccccc2O)c1 | 9.71
36 | COC(=O)CCC(=O)NNC(=O)c1ccc([N+](=O)[O-])cc1 | 19.8
37 | CCc1ccccc1N1C(=O)c2ccccc2S1(=O)=O | 3.45
38 | COc1ccccc1NC1=NCC(=O)N1Cc1ccccc1 | 7.09
39 | CCOC(=O)N1CCN(S(=O)(=O)c2c(C(=O)N3CCCCC3)c(C)n(C)c2C)CC1 | 6.25
40 | Cl.OCCN(CC#CC(O)(c1ccccc1)C1CCCC1)CCO (stereo not shown) | 9.86

Row | SMILES | hERG current change (%, negative = inhibition) at 1uM [%]
41 | CCCCn1c(=O)[nH]c(=O)c2c1nc(-c1ccccn1)n2CC | 9.48
42 | COc1ccc(NC(=O)CSc2ccccc2)cc1S(=O)(=O)N1CCCCC1 | 9.2
43 | OC1(c2ccc(Cl)cc2)CN(c2ccccc2)C2=[N+]1CCS2.[Br-] (stereo not shown) | -3.19
44 | CN(C(=O)CC1C(=O)NCCN1Cc1cccc(F)c1F)C1CCOCC1 (stereo not shown) | 12.8
45 | CCCOc1ccc(Br)cc1CSC(=N)N.Cl | 2
46 | O=C(CNC(=O)c1cccc(F)c1)N/N=C/c1cccc([N+](=O)[O-])c1 | -7.35
47 | O=C(NCC(=O)N1CCCC1C(=O)O)OC1CCCCC1 (stereo not shown) | 8.48
48 | O=C(NC1CCCCC1)C1CCN(S(=O)(=O)c2cccc3cccnc23)CC1 | 9.3
49 | CCc1ccc(N(CC)C(=O)Cc2c(C(=O)O)n(C)c3ccccc23)cc1 | 15.8
50 | Cc1ccc(Cc2c(C)nc3nc(SCC(=O)NCCCN4CCCC4)nn3c2C)cc1 | 5.57
51 | CC(C)NC(=O)NCCCCCCS(C)=O (stereo not shown) | 10.6
52 | COc1ccccc1-n1cnc2cc(NS(=O)(=O)c3ccccc3)ccc21 | 7.79
53 | COCCn1c(=S)[nH]c2ncccc2c1=O | 13.1
54 | CCSc1ccccc1C(=O)Nc1cc(C)on1 | 1.78
55 | NC(=O)CC(NC(=O)Cc1ccc(Br)cc1)c1ccc(N2CCN(c3ccccn3)CC2)c([N+](=O)[O-])c1 (stereo not shown) | 17.9
56 | O=C(Cc1ccccc1Cl)Nc1ccc(S(=O)(=O)Nc2nccs2)cc1 | 18
57 | CCC(=O)NCc1cc(-c2nn(C)c(=O)c3ccccc23)ccc1C | 10.9
58 | CCOC(=O)C1CCC(CNCc2ccccc2C)CC1.Cl (stereo not shown) | 9.13
